Data from patent US20260265359A1 (Hoffmann-La Roche, published 2026).

Experiments:
recombinant human Ang-2 = biological target: T1, recombinant human Ang-2 (human, UniProt O15123 19-496, limits assumed); test: ELISA on plate-coated recombinant human Ang-2; anti-human IgG1-Fc-HRP, OD450
T1 construct: also called Angiopoietin-2; hAng-2
T1 sequence (looked up): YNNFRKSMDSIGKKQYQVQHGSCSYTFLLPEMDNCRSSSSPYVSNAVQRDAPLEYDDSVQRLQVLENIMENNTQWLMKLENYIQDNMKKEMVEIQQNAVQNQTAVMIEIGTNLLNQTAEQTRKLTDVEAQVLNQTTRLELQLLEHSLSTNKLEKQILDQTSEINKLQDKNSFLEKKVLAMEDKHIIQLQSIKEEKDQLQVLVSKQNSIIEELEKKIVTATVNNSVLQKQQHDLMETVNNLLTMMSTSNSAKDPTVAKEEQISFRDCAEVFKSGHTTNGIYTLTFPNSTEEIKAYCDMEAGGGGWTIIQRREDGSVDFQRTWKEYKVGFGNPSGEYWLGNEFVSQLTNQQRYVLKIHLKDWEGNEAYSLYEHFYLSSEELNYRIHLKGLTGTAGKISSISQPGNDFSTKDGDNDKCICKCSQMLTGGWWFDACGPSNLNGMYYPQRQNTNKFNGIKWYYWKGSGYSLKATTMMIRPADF
Experimental: (§1) After non-specific blocking using 1% BSA at 25° C. for 1 hour, a series of dilutions of test antibodies (“Abs”) were added into the coated wells and incubated at 25° C. for 1 hour. The bound Abs were detected using a secondary Ab (goat anti-human IgG1-Fc) conjugated with HRP followed by OD₄₅₀ reading.

recombinant human Ang-1 [1] = biological target: T2, recombinant human Ang-1 (human, UniProt Q15389 20-498, limits assumed); test: ELISA on plate-coated recombinant human Ang-1; anti-human IgG1-Fc-HRP, OD450 (curve reaches only OD450 about 0.2 at about 10 µg/mL)
T2 construct: also called Angiopoietin 1
T2 sequence (looked up): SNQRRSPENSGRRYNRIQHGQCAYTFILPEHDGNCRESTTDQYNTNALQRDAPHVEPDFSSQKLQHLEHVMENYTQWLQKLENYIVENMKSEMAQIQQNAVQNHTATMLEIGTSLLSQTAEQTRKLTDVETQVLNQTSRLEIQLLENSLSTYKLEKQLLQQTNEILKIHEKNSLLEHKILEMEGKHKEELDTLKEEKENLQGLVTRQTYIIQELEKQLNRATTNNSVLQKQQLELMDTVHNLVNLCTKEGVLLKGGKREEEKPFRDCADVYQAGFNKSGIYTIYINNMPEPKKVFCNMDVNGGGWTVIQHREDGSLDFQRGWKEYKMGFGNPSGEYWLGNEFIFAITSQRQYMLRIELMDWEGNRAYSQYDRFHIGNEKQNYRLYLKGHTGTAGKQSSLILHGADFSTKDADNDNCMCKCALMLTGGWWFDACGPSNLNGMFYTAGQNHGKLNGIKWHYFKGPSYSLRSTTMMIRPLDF
Experimental: as §1
The same ELISA procedure was performed with recombinant human Ang-1.

[2] = biological target: T3, recombinant human VEGF-B167 (human, UniProt P49765-2 22-188); test: ELISA on plate-coated recombinant human VEGF-B167; anti-human IgG1-Fc-HRP, OD450
T3 sequence (looked up): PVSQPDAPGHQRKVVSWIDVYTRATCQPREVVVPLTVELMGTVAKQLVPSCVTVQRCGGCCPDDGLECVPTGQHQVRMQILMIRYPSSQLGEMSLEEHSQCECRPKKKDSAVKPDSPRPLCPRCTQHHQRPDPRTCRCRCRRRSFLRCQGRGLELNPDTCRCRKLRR
Experimental: as §1

recombinant human Ang-1 [3] = biological target: T2, recombinant human Ang-1; test: SPR Biacore, 25 C; test antibody captured by anti-human IgG (Fc) on CM5 chip, target protein as analyte
Experimental: SPR Biacore assay was performed at 25° C. with HBS-EP+ as a running buffer. The assay was performed by immobilization of the anti-human IgG (Fc) antibody onto the CM5 sensor chip surface and determined the level of ligand immobilization. […] Test antibodies were injected over the surface of Series S Sensor Chip CM5 as Capture. The analytes (target proteins) were diluted with running buffer into different concentrations and injected over the sensor surface as the association phase for affinity and kinetics measurements. The 1:1 binding model was used to measure the binding affinity and/or kinetics.

Rhesus monkey Ang-2 = Rhesus monkey Ang-2 (Rhesus monkey); test: ELISA, cross species binding
rabbit Ang-2 = rabbit Ang-2 (rabbit); test: ELISA, cross species binding
Rhesus monkey VEGF-A165 = Rhesus monkey VEGF-A165 (Rhesus monkey); test: ELISA, cross species binding
recombinant human IL-6R = biological target: T4, recombinant human IL-6R (human, UniProt P08887 20-365, limits assumed); test: ELISA, cross species binding
T4 construct: Recombinant protein used in ELISA and as SPR analyte; also called hIL-6R
T4 sequence (looked up): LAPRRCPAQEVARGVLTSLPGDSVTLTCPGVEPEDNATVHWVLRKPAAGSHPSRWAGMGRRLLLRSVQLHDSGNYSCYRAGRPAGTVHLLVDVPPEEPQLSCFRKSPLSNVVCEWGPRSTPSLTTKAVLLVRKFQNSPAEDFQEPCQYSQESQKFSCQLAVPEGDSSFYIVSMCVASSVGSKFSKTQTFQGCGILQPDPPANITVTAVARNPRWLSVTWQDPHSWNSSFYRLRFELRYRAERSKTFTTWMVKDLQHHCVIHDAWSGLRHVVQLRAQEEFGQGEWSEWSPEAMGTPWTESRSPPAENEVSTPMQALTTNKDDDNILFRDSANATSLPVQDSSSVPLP

rabbit VEGF-A165 = rabbit VEGF-A165 (rabbit); test: ELISA, cross species binding
rat VEGF-A165 = biological target: T5, rat VEGF-A165 (rat, UniProt P16612-2 27-190); test: ELISA, cross species binding
T5 sequence (looked up): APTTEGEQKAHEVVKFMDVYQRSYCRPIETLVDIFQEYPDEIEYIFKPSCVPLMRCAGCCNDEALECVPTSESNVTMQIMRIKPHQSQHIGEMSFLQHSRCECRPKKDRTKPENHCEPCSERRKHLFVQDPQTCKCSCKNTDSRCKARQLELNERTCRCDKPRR

[4] = biological target: T6, recombinant human VEGF-A165 (human, UniProt P15692-4 27-191); test: ELISA, cross species binding
T6 sequence (looked up): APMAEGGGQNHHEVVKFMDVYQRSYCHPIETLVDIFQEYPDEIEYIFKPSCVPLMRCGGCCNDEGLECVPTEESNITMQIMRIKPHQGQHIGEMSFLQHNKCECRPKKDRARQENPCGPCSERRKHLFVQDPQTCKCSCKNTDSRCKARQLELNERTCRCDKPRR

B1: EB-105BI-7CA (other)
heavy: QVQLQESGPGLVRPSQTLSLTCTVSGYSITSDHAWSWVRQPPGRGLEWIGYISYSGITTYNPSLKSRVTMLRDTSKNQFSLRLSSVTAADTAVYYCARSLARTTAMDYWGQGSLVTVSSASTKGPSVFPLAPSSKSTSGGTAALGCLVKDYFPEPVTVSWNSGALTSGVHTFPAVLQSSGLYSLSSVVTVPSSSLGTQTYICNVNHKPSNTKVDKKV[human IgG1 Fc skipped]GGSGGGGSGGGGSAQTNFMPMDDLEQRLYEQFILQQGLE
light: SDTGRPFVEMYSEIPEIIHMTEGRELVIPCRVTSPNITVTLKKFPLDTLIPDGKRIIWDSRKGFIISNATYKEIGLLTCEATVNGHLYKTNYLTHRQTNTIIDVVLSPSHGIELSVGEKLVLNCTARTELNVGIDFNWEYPSSKHQHKKLVNRDLKTQSGSEMKKFLSTLTIDGVTRSDQGLYTCAASSGLMTKKNSTFVRVHEKDIQMTQSPSSLSASVGDRVTITCRASQDISSYLNWYQQKPGKAPKLLIYYTSRLHSGVPSRFSGSGSGTDFTFTISSLQPEDIATYYCQQGNTLPYTFGQGTKVEIKRTVAAPSVFIFPPSDEQLKSGTASVVCLLNNFYPREAKVQWKVDNALQSGNSQESVTEQDSKDSTYSLSSTLTLSKADYEKHKVYACEVTHQGLSSPVTKSFNRGEC
notes: VEGFR-1-D2-VEGFR-2-D3 at the N-terminus of the tocilizumab light chain; Made in CHO cells; also called B21138001
EC50 (recombinant human Ang-2): 0.436 nM | EC50 (recombinant human Ang-1 [1]): 6.35 µM | EC50 [2]: 0.043 nM

B2: EB-105BI-7CB (other)
heavy: QVQLQESGPGLVRPSQTLSLTCTVSGYSITSDHAWSWVRQPPGRGLEWIGYISYSGITTYNPSLKSRVTMLRDTSKNQFSLRLSSVTAADTAVYYCARSLARTTAMDYWGQGSLVTVSSASTKGPSVFPLAPSSKSTSGGTAALGCLVKDYFPEPVTVSWNSGALTSGVHTFPAVLQSSGLYSLSSVVTVPSSSLGTQTYICNVNHKPSNTKVDKKV[human IgG1 Fc skipped]GGSGGGGSAQTNFMPMDDLEQRLYEQFILQQGLE
light: B1 light
notes: Trispecific antibody fusion protein, first embodiment; lead molecule; also called B21138002
binding result (recombinant human Ang-1 [3]): no binding | binding affinity measured by ELISA (Rhesus monkey Ang-2): 0.0729 nM | binding affinity measured by ELISA (rabbit Ang-2): 0.173 nM | binding affinity measured by ELISA (Rhesus monkey VEGF-A165): 0.0621 nM | binding affinity measured by ELISA (recombinant human IL-6R): 0.0359 nM | binding affinity measured by ELISA (rabbit VEGF-A165): 0.0775 nM | binding affinity measured by ELISA (rat VEGF-A165): 0.0207 nM | binding affinity measured by ELISA [4]: 0.0621 nM
